± gives the uncertainty stated by the source. The list shows a part of the results. A small y stands for phosphotyrosine.
Molecular target: GRB2 (endogenous complexes from cell lysate), P62993
Test: GRB2 complex binding differential signal (pY peptide minus Ala control peptide) (fluorescence intensity units); higher = stronger GRB2 complex binding
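Note: phosphopeptide probes on the chip at 1–4 µM, lysate proteins bound in 20 mM Tris pH 7.0 buffer with 140 mM NaCl, 1% Triton X-100 and 5% glycerol.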

Binder	GRB2 complex binding differential signal (MCF7)	GRB2 complex binding differential signal (MCF10A)	GRB2 complex binding differential signal (MDA-MB-231)	GRB2 complex binding differential signal (T47D)
yELLTE [JAK2_813/A1]	-72.9 ± 630	465 ± 230	1210 ± 360	715 ± 950
yYTVKD [JAK1_1034/A1]	5080 ± 2200	3490 ± 1200	1270 ± 490	3150 ± 1400
yELLSD [JAK3_785/A1]	249 ± 180	282 ± 190	763 ± 390	61.4 ± 810
yTVKDD [JAK1_1035/A1]	1140 ± 200	775 ± 290	656 ± 420	564 ± 1100
yLGTKR [JAK2_966/A1]	570 ± 340	381 ± 150	794 ± 280	375 ± 850
yYRKGG [INSR_1189/A1]	1300 ± 340	434 ± 210	273 ± 260	734 ± 2500
yDYQTN [ITK_180/A1]	27.8 ± 220	-136 ± 230	443 ± 380	441 ± 1000
yASSNP [INSR_992/A1]	1510 ± 550	1220 ± 340	1160 ± 570	2100 ± 1700
yVPDEW [INSR_1011/A1]	190 ± 1000	-49.2 ± 420	252 ± 350	-483 ± 3000
yLNIKE [JAK1_3/A1]	37800 ± 6600	16000 ± 3800	9430 ± 1800	14600 ± 6600
yFSAAD [IGF1R_980/A1]	1300 ± 300	717 ± 300	679 ± 370	888 ± 1200
yALVSL [INSR_401/A1]	131 ± 170	260 ± 210	695 ± 310	1230 ± 1200
yTHMNG [INSR_1361/A1]	1200 ± 270	984 ± 400	557 ± 360	1090 ± 1400
yASVNP [IGF1R_973/A1]	2400 ± 350	2630 ± 760	1030 ± 440	685 ± 2200
yYKVKE [JAK2_1007/A1]	3000 ± 510	2660 ± 420	998 ± 370	264 ± 720
yLRTLP [INSRR_597/A1]	1520 ± 330	1130 ± 380	1420 ± 490	1820 ± 1400
yDPLQD [JAK2_868/A1]	-879 ± 880	-33.7 ± 310	390 ± 270	170 ± 1200

Binder	GRB2 complex binding differential signal (MCF7)	GRB2 complex binding differential signal (MCF10A)	GRB2 complex binding differential signal (MDA-MB-231)	GRB2 complex binding differential signal (T47D)
yAHMNG [IGF1R_1346/A1]	852 ± 320	644 ± 250	264 ± 240	620 ± 1200
yETDYY [INSR_1185/A1]	111 ± 160	410 ± 570	1100 ± 260	2060 ± 1200
yYVVRE [JAK2_980/A1]	564 ± 810	581 ± 360	520 ± 390	115 ± 1000
yIHRDL [JAK2_972/A1]	171 ± 230	559 ± 270	267 ± 370	192 ± 820
yLSASD [INSR_999/A1]	1040 ± 420	1190 ± 420	857 ± 470	798 ± 1300
yLRDRS [ADCY2_11/A1]	3220 ± 830	1070 ± 1600	550 ± 260	729 ± 1100
yNPNYC [ALK_1092/A1]	82.5 ± 650	225 ± 220	137 ± 330	-261 ± 830
yIPETL [JAK1_220/A1]	-212 ± 460	666 ± 300	760 ± 330	597 ± 830
yVVREP [JAK2_981/A1]	370 ± 1000	2670 ± 700	991 ± 420	463 ± 820
yKVKEP [JAK2_1008/A1]	1280 ± 900	2550 ± 420	876 ± 420	278 ± 870
yTSSTG [ITK_512/A1]	1910 ± 300	3330 ± 750	817 ± 280	803 ± 1500
yKLSKL [ALK_1078/A1]	772 ± 470	615 ± 300	336 ± 310	944 ± 1000
yRKGGK [INSR_1190/A1]	-192 ± 240	141 ± 230	215 ± 220	–
yEEHIP [INSR_1355/A1]	821 ± 200	753 ± 390	383 ± 490	589 ± 1200
yAVAAT [ITGA5_328/A1]	558 ± 270	1820 ± 360	155 ± 320	-371 ± 990
ySEENK [IGF1R_1281/A1]	429 ± 230	619 ± 170	1260 ± 530	1310 ± 1200
